Source: PubChem BioAssay AID485281 (National Center for Advancing Translational Sciences (NCATS), 2010)
Among all 350,000 compounds or so, about 260 (0.074%) were called active. Inconclusive results, whose numbers are uncertain, are shown with a selection of clear calls. Calls follow the shape of the dose curve; as a rule, active = well fitted inhibition curve with a large enough effect; inconclusive = small, poorly fitted or top-dose-only effect; inactive = no such curve, though single readings can be large or run the other way. Potencies of inconclusive entries are doubtful fits and often do not repeat.

These compounds were tested against Ferritin light chain (Equus caballus) (UniProt P02791) (assay: qHTS Assay for Identification of Novel General Anesthetics). Conditions: apoferritin/1-aminoanthracene competitive binding, fluorescence; activity change, negative = displacement: at 77.5 µM (top of the series).
Chain of UniProt P02791 (P02791 whole entry, looked up): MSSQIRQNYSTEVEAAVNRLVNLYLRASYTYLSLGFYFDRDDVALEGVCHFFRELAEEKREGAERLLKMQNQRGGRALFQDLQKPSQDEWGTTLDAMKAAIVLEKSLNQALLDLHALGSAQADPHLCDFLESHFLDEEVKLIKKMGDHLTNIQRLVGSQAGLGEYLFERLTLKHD
Method in brief: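 Concentration-response curves derived by four-parameter Hill fitting of normalized fluorescence, where compounds displaced 1-AMA from 10 uM horse apoferritin following a brief 10 min room-temperature incubation; propofol titration acted as positive control.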
% is scaled to controls: 0 for no effect and ±100 for the full control effect; potency is read from the fitted curve at half-maximal effect; tags tell the direction and shape of the fitted curve.
Also: nearly all actives have a fitted effect of over 20% in size.

SMILES | Potency | activity change, negative = displacement
Cc1ccc(Nc2c([N+](=O)[O-])c(=O)oc3ccccc23)cc1C | inconclusive: 31.6 µM [inhibitor, partial curve] | –
Cc1ccc(S(=O)(=O)Nc2cc(C)c(O)c(S(=O)(=O)c3ccc(C)cc3)c2)cc1 | inconclusive: 12.6 µM [inhibitor, partial curve] | –
COc1cccc(-c2nc(CS(=O)CC(=O)NCc3ccc4c(c3)OCO4)c(C)o2)c1 (configuration not stated) | inconclusive: 12.6 µM [inhibitor, partial curve] | –
O=C(Nc1cccc(O)c1)c1noc2c1CCCCC2 | inconclusive: 35.5 µM [inhibitor, partial curve] | –
O=C(Nc1cc(Cl)ccc1O)C1CCCO1 (configuration not stated) | inconclusive: 25.1 µM [inhibitor, partial curve] | –
COc1ccc(C2=Nn3c(nnc3-c3ccco3)SC2)cc1 | – | inactive: -12.1%
Cc1cc(N2CC(C(=O)Nc3nccs3)CC2=O)ccc1C(C)C (configuration not stated) | inconclusive: 50.1 µM [inhibitor, single point] | –
CCCCCn1c(C)c2c(OCC)cccc(=O)c2c1C | inconclusive: 31.6 µM [inhibitor, single point] | –
O=C(CSCc1ccc(Cl)cc1)Nc1ccc2c(c1)OCCO2 | inconclusive: 28.2 µM [inhibitor, partial curve] | –
Cc1ccc(OCCCc2c(C)n[nH]c2C)cc1 | inconclusive: 25.1 µM [inhibitor, partial curve] | –
COc1ccc(Nc2oc(COc3ccccc3OC)nc2C#N)cc1 | – | inactive: -11.1%
CC1CCCC(C)N1C(=O)CSc1nnc(COc2ccccc2)n1-c1ccccc1 (configuration not stated) | inconclusive: 8.91 µM [inhibitor, full curve, poor fit] | –
COC(=O)c1sc(-c2ccc(C(C)(C)C)cc2)cc1NC(=O)CCC(=O)O | inconclusive: 56.2 µM [inhibitor, single point] | –
O=S(=O)(Nc1ccc2oc(-c3ccccc3)nc2c1)c1ccccc1 | inconclusive: 10 µM [inhibitor, partial curve] | –
Cc1ccc2oc(=O)c(/C=C(\O)c3cccs3)nc2c1 | – | inactive: -8.46%
COC(=O)c1sc(Nc2ccccc2)nc1C | inconclusive: 22.4 µM [inhibitor, partial curve] | –
COc1cc2ccccc2cc1C(=O)Nc1cc(C)ccn1 | inconclusive: 35.5 µM [inhibitor, partial curve] | –
O=C(Nc1ccc(Cl)cc1)N1CCc2[nH]c3ccccc3c2C1 | inconclusive: 15.8 µM [inhibitor, partial curve] | –
CCN(CC)S(=O)(=O)c1ccc(/C=C/C(=O)Nc2ccc(N3CCOCC3)cc2)cc1 | inconclusive: 39.8 µM [inhibitor, partial curve] | –
CC1(C)CCC[C@@](C)([C@H]2CC[C@]3(C)[C@@H]2[C@H](O)C[C@@H]2[C@@]4(C)CC[C@H](O)C(C)(C)[C@@H]4CC[C@]23C)O1 | inconclusive: 35.5 µM [inhibitor, partial curve] | –
COc1cc(-c2nc(-c3ccc(C)nc3OC)no2)cc(OC)c1OC | – | inactive: 2.96%

SMILES | Potency | activity change, negative = displacement
CCn1c2ccccc2c2cc(NC(=O)COC(=O)C3CCC(=O)N3)ccc21 (configuration not stated) | – | inactive: -9.64%
CCCCC(=O)Nc1nc2c(s1)COc1ccccc1-2 | inconclusive: 14.1 µM [inhibitor, partial curve] | –
COc1ccccc1/C=C/C(=O)N1CCc2cc(OC)c(OC)cc2C1C (configuration not stated) | inconclusive: 35.5 µM [inhibitor, single point] | –
CC(C)Nc1nc(SC(C)C(=O)Nc2ccccc2)nc(N(C)C)n1 (configuration not stated) | inconclusive: 31.6 µM [inhibitor, partial curve] | –
CCN(CC)CCCNC(=O)C(C)n1nc(C)c2sc3ccccc3c2c1=O (configuration not stated) | inconclusive: 56.2 µM [inhibitor, single point] | –
O=C(COC(=O)c1ccc(S(=O)(=O)N2CCc3ccccc3C2)cc1)NC(=O)NCc1ccco1 | inconclusive: 17.8 µM [inhibitor, partial curve] | –
O=C(c1cccs1)c1coc2ccc(O)cc12 | inconclusive: 31.6 µM [inhibitor, partial curve] | –
COc1ccccc1C1=Nn2c(nnc2C2CCCCC2)SC1 | inconclusive: 14.1 µM [inhibitor, partial curve] | –
CC1(c2nnc(-c3ccc(Cl)cc3)o2)CC(c2c(Cl)cccc2Cl)=NO1 (configuration not stated) | – | inactive: 2.47%
c1ccc(NCc2cccnc2)cc1 | inconclusive: 31.6 µM [inhibitor, partial curve] | –
CC(=O)C1=C(C)NC(SCC(=O)c2ccc(Cl)cc2)=C(C#N)C1CC(C)C (configuration not stated) | inconclusive: 35.5 µM [inhibitor, partial curve] | –
CC1CC(C)CN(c2ccc(C(=O)OCC(=O)NC3CCCc4ccccc43)cc2[N+](=O)[O-])C1 (configuration not stated) | inconclusive: 17.8 µM [inhibitor, partial curve] | –
Cc1ccccc1C(=O)/C=C1/c2ccccc2CC(C)(C)N1C | inconclusive: 39.8 µM [inhibitor, single point] | –
O=C(c1cc(-c2ccc(O)cc2)on1)N1CCN(c2ccc(F)cc2)CC1 | – | inactive: -19.3%
CCOc1ccccc1NC(=O)Cn1nnc2sc3c(c2c1=O)CCC(C(C)(C)C)C3 (configuration not stated) | inconclusive: 6.31 µM [inhibitor, single point] | –
CCOC(=O)Cc1ccc(NCc2ccc(Cl)cc2)cc1 | inconclusive: 17.8 µM [inhibitor, partial curve] | –
COCCCNC(=O)/C(C#N)=C/c1c(N2CCN(c3ccc(OC)cc3)CC2)nc2c(C)cccn2c1=O | inconclusive: 22.4 µM [inhibitor, partial curve] | –
CC(=O)c1cccc(Nc2nc(-c3sc(N)nc3C)cs2)c1 | inconclusive: 31.6 µM [inhibitor, single point] | –
CCn1c(-c2ccc3[nH]c(C)c(C)c3c2)n[nH]c1=S | inconclusive: 35.5 µM [inhibitor, partial curve] | –
O=S(=O)(Nc1ccc2c(c1)OCCO2)c1ccc(F)cc1 | inconclusive: 35.5 µM [inhibitor, single point] | –
COc1ccc(Nc2c([N+](=O)[O-])ccc3c2=NC2(CCCCC2)N=3)cc1 | inconclusive: 12.6 µM [inhibitor, partial curve] | –
